Results: PubChem BioAssay AID1508623 (National Center for Advancing Translational Sciences (NCATS), 2021)
In all, about 48,000 compounds went through this assay and about 450 (0.94%) were called active. Inconclusive results (about 19%) are left out. Calls come from the whole dose curve; as a rule, active = well fitted inhibition curve with a large enough effect; inconclusive = small, poorly fitted or top-dose-only effect; inactive = no such curve, though single readings can be large or run the other way. Some of the results follow.

Experiment: Primary qHTS for Identification of Small Molecule Inhibitors of Huntingtin Promoter Activity; note: nearly all actives have a fitted effect of over 50% in size
Conditions: HEK293 HTT promoter firefly luciferase reporter (activity 0% = vehicle and -100% = no light), 24 h; series mostly up to 57.5 µM; activity change, negative = inhibition: at the top concentration
Procedure, shortened: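 Luminescence was read after Dual-Glo reagent and a 10 min room-temperature incubation. Values were normalized to vehicle (0% activity) and zero RLU (-100% activity). Reporter HEK293 cells had been exposed to compounds (up to 57.5 uM final) for 24 h.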
Potency is the fitted concentration of half-maximal effect.

| Compound | activity change, negative = inhibition | Potency |
| --- | --- | --- |
| CCN(CC)S(=O)(=O)c1ccc2c(c1)N(CC(=O)NCCCN1CCN(c3cc(Cl)ccc3C)CC1)C(=O)CO2 | inactive: -30% |  |
| Cc1cccc(Cn2c(SCc3ccc(C(=O)NC4CCCC4)cc3)nc3ccncc32)c1 | inactive: -26.5% |  |
| Cc1ccc(NC(=O)c2sc(-n3nc(C)c(Cc4ccc5c(c4)OCO5)c3C)nc2C)cc1Cl | inactive: -0.699% |  |
| Cc1cccc(-c2noc(CNC(=O)c3ccccc3Br)n2)c1 | inactive: 2.92% |  |
| Cc1cccc(NC(=O)C2CCN(c3cnccn3)CC2)c1 | inactive: -6.49% |  |
| CC1CCN(S(=O)(=O)c2ccc3c(c2)oc(=O)n3CC(=O)O)CC1 | inactive: -2.26% |  |
| COc1ccc(CC(=O)Nc2ccc3nc(N4CCCCC4)cc(C)c3c2)cc1 | inactive: -23.6% |  |
| CCOC(=O)c1c(NC(C)=O)c2c3c(sc2n1Cc1nc(-c2ccccc2Cl)oc1C)CCCC3 | inactive: -26% |  |
| Cc1ccc(CNC(=O)c2cc3c(s2)-c2c(C)cccc2OC3)cc1 | inactive: -16.2% |  |
| Cc1ncc([N+](=O)[O-])n1C | inactive: 7.78% |  |
| COc1ccc2c(c1)c1c(c(=O)n(Cc3ccccc3)c(=O)n1CC(=O)NCc1ccccc1)n2C | inactive: -13% |  |
| COc1ccc(CNCc2c(C(=O)O)n(Cc3ccc(F)cc3)c3cc(C)ccc23)cc1OC | inactive: -22.9% |  |
| CCOCCCNC(=O)c1ccc(-n2c(-c3ccccc3)cc3c2CCCCC3)cc1 | inactive: 12.6% |  |
| CCC(=O)N1CCc2cc(Br)cc(S(=O)(=O)CCC(=O)Nc3cccc(C)c3C)c21 | inactive: -5.19% |  |
| COc1ccccc1NC(=O)c1sc2nc3c(cc2c1N)CN(Cc1ccccc1)CC3 | inactive: -25.3% |  |
| COCCn1c(C)cc(O)c(C(c2ccc(F)cc2)N2CCN(c3ccccc3)CC2)c1=O (stereo unspecified) | inactive: -2.92% |  |
| CCOC(=O)c1c(C)c(-c2ccccc2)n(CC(=O)NCCc2cccc(C)c2)c1C | inactive: 1.04% |  |
| O=C(CSc1nc(=O)[nH]c2c1CCCC2)NCc1ccc(F)cc1 | inactive: -13.5% |  |
| N#Cc1ccccc1Cn1cnc2nc3c(cc2c1=O)CCCC3 | inactive: -8.48% |  |
| CCc1cc(=O)[nH]c(SCc2nc(-c3ccccc3)no2)n1 | inactive: -32.3% |  |
| Cc1cccc(CC(=O)NCc2nc3cccnc3n2Cc2ccc(F)cc2)c1 | inactive: -6.76% |  |
| CCCOc1ccc(C(=O)Nc2ccc(NC(=O)c3ccccc3)c(C)c2)cc1 | inactive: -6.01% |  |
| Cc1nnc2c(N3CCN(c4ccccc4F)CC3)nc3ccc(C(=O)c4ccccc4)cc3n12 | inactive: 13.8% |  |
| CCOC(=O)C1CCC(CN(Cc2ccc(OC)cc2)S(=O)(=O)c2ccc(F)c(C(=O)Nc3c(C)cccc3C)c2)CC1 (stereo unspecified) | inactive: 1.89% |  |

| Compound | activity change, negative = inhibition | Potency |
| --- | --- | --- |
| CS(=O)(=O)Nc1ccccc1C(=O)OCc1cc(=O)n2nc(C3CCCCC3)sc2n1 | inactive: -4.1% |  |
| Cc1cc(F)ccc1NC(=O)CS(=O)(=O)c1cccc2nsnc12 | inactive: 7.5% |  |
| Cc1ccccc1Nc1c(-c2ccccc2)nc2cccc(C)n12 | inactive: -15.1% |  |
| O=C(Cn1cnc2c(nc3n2CCCCC3)c1=O)Nc1ccc(F)c(Cl)c1 | inactive: -23.2% |  |
| COc1ccc(CNc2nc(SCc3ccccc3Cl)nc3ccccc23)cc1 | inactive: -27.3% |  |
| CCOC(=O)C(C#N)=C(c1ccccc1)c1ccccc1 | inactive: -13.5% |  |
| COc1ccc(N2CC(NC(=O)C3CCCC3)CC2=O)cc1OC (stereo unspecified) | inactive: -3.33% |  |
| Cn1nc(C(=O)N2CCN(c3ccc(F)cc3)CC2)c2c1-c1ccccc1SC2 | inactive: -3% |  |
| COc1ccc(CCNC(=O)c2cn(C)c3ccc(S(=O)(=O)N(C)C)cc3c2=O)cc1OC | inactive: 2.78% |  |
| CC(C)c1ccc(NC(=O)Cn2nnc(C(=O)NCc3ccc(Cl)cc3)c2N)cc1 | inactive: -1.27% |  |
| CCN(C(=O)c1cn(CC(C)C)c(=O)c2cc(OC)c(OC)cc12)c1cc(OC)ccc1OC | inactive: -12.8% |  |
| COc1ccc2c(c1)sc1ncc(C(=O)NCc3cccc(C)c3)c(=O)n12 | inactive: -6.47% |  |
| COc1ccc(NC(=O)CCc2nnc3n(Cc4ccc(C)cc4)c(=O)c4ccccc4n23)cc1 | inactive: -17.2% |  |
| CCc1ccccc1NC(=O)Cn1ccn(Cc2ccccc2)c(=O)c1=O | inactive: -11.1% |  |
| CC1CCCCN1C(=O)CCS(=O)(=O)c1cc2c(cc1Cl)NC(=O)CO2 (stereo unspecified) | inactive: -5.26% |  |
| COc1cccc(CNCCCSc2nnnn2C)c1OC | inactive: 3.63% |  |
| CCS(=O)(=O)c1nc(S(=O)(=O)c2ccc(C)cc2)c(NC)s1 | inactive: -15.7% |  |
| Cc1cccc(C(=O)N2CCc3cc(CNS(=O)(=O)c4ccc(F)c(Cl)c4)ccc32)c1 | inactive: -10.3% |  |
| CC(=O)Nc1c(C)nn(-c2ccccc2)c1N1CCC(C(=O)Nc2ccccc2F)CC1 | inactive: 3.57% |  |
| O=C(Nc1ccccc1)N(Cc1cccc(Cl)c1)c1ccccn1 | inactive: -11.8% |  |
| CC(=O)c1ccc(N2CCN(C(=O)Nc3ccc(C(C)C)cc3)CC2)cc1 |  | active: 22.4 µM |
| Cn1c2ccccc2c2cnn(CC(=O)NCCCN3CCN(c4ccccc4F)CC3)c(=O)c21 | inactive: -6.02% |  |
| CCCCN1C[C@H](O)[C@@H](O)[C@H](O)[C@H]1CO | inactive: 2.73% |  |
| COc1ccc(NC(=O)c2ccco2)cc1NC(=O)c1c(OC)cccc1OC | inactive: 3.53% |  |

| Compound | activity change, negative = inhibition | Potency |
| --- | --- | --- |
| CCOc1ccc(CN2C(=O)c3ccccc3C2C(=O)NCCc2ccc(OC)c(OC)c2)cc1 (stereo unspecified) | inactive: -3.79% |  |
| CCOC(=O)c1c(S(=O)(=O)N2CCC(C(=O)Nc3ccc(F)cc3F)CC2)c(C)n(C)c1C | inactive: -21.2% |  |
| COc1ccc(Cn2c(CO)cnc2SCc2ccccc2C)cc1 | inactive: 61.1% |  |
| COc1ccc(CNC(=O)Cc2c(C)c3cc4c(C)coc4c(C)c3oc2=O)cc1OC | inactive: -4.9% |  |
| Cc1ccc(C)c(NC(=O)C2CCN(c3cc(C)nc4c(-c5ccc(Cl)cc5)c(C)nn34)CC2)c1 | inactive: -14.7% |  |
| COc1ccc(-n2cc(C(=O)Oc3cc(C)cc(C)c3)c3ccccc3c2=O)cc1 | inactive: -0.645% |  |
| COc1cccc(NC(=O)Cn2cc(C(=O)c3ccco3)c3ccccc32)c1 | inactive: -18.8% |  |
| Cc1ccc(-n2c(SCC(=O)c3ccccc3)nc3c([nH]c4ccccc43)c2=O)cc1 | inactive: -15.3% |  |
| c1ccc2c(c1)CCCC2C1=NCCN1 (stereo unspecified) | inactive: 11.3% |  |
| O=C(Nc1ccc2oc(-c3cccc(F)c3)nc2c1)c1ccc2ccccc2c1 | inactive: 2.9% |  |
| Cc1cc(C)cc(NC(=O)c2cc(S(=O)(=O)N3CCc4ccccc43)cn2C)c1 | inactive: -21.6% |  |
| COc1cccc(NC(=O)Cn2c(=O)n(CCCCC(=O)NCc3ccccc3Cl)c(=O)c3ccccc32)c1 | inactive: -14.3% |  |
| CCCCC(Sc1nc2cc3c(cc2c(=O)n1CCCC(=O)NCc1ccc2c(c1)OCO2)OCO3)C(=O)OCC (stereo unspecified) | inactive: -8.62% |  |
| O=C(CSc1ncc(S(=O)(=O)c2ccc(Br)cc2)c(=O)[nH]1)Nc1ccc2c(c1)OCCO2 | inactive: 5.75% |  |
| CCOc1ccccc1N1CCN(S(=O)(=O)c2ccc(C3CCCCC3)cc2)CC1 | inactive: -13% |  |
| COc1cccc(-n2c(SCc3ccc(F)cc3)nc3c([nH]c4ccccc43)c2=O)c1 | inactive: -29% |  |
| Cc1ccc2nc(-c3ccc(Cl)s3)c(Nc3ccc4c(c3)OCCO4)n2c1 | inactive: 41.3% |  |
| COC(=O)c1ccc(NC(=O)CN(C)S(=O)(=O)c2ccc(Br)s2)cc1 | inactive: -2.95% |  |
| COc1ccc(Cn2ccnc2SCC(=O)Nc2nnc(C)s2)cc1 | inactive: -23.7% |  |
| Cc1nn2c(C)c(C(=O)NCc3ccc(OC(C)C)cc3)cnc2c1-c1ccc(F)cc1 | inactive: -18.3% |  |
| CCN(CCCNC(=O)c1nn(-c2ccc(C)cc2)c(=O)c2c1c1ccccc1n2C)c1cccc(C)c1 | inactive: -4.78% |  |
| COc1cccc(CNC(=O)CN2C(=O)COc3ccc(S(=O)(=O)N4CCOCC4)cc32)c1 | inactive: -3.24% |  |
| Cc1ccc(CNC(=O)c2ccc(N3CCCC3)c(NC(=O)Nc3ccc(F)c(Cl)c3)c2)cc1 | inactive: -29.2% |  |
| O=C(O)Cn1c(C(=O)Nc2nc(-c3ccccc3Cl)cs2)cc2ccccc21 | inactive: 4.68% |  |

| Compound | activity change, negative = inhibition | Potency |
| --- | --- | --- |
| Cc1ccc2c(c1)-c1c(c(C(=O)N3CCN(c4cc(C)ccc4C)CC3)nn1C)CS2 | inactive: -10.9% |  |
| COc1ccc(NC(=O)Cn2c(=O)c3ccccc3n3nncc23)c(OC)c1 | inactive: -15.7% |  |
| CC(=O)c1c(C)oc2c1cc(NS(=O)(=O)c1ccc(C(C)(C)C)cc1)c1ccccc12 | inactive: -17% |  |
| Cc1ccc(CNC(=O)C(C)n2nc(C)c3sc4ccccc4c3c2=O)cc1 (stereo unspecified) | inactive: -12.6% |  |
| Cc1cc(C)c(NC(=O)Cn2c(=O)n(Cc3ccc(C(=O)NCc4ccc5c(c4)OCO5)cc3)c(=O)c3ccccc32)c(C)c1 | inactive: -2.92% |  |
| COc1ccc(NC(=O)c2cc(S(=O)(=O)N3CCCC3)ccc2OC)cc1 | inactive: -10.9% |  |
| CC(C)Cc1nn2c(=O)cc(COC(=O)c3ccc(NC(=O)C4CCCCC4)cc3)nc2s1 | inactive: -7.57% |  |
| CCOc1ccc(C(=O)NCC(c2cccs2)S(=O)(=O)c2ccccc2)cc1 (stereo unspecified) | inactive: -18.6% |  |
| COc1ccc(Nc2nc3ccc(Cl)cc3nc2-n2nc(C)cc2C)cc1 | inactive: -14.6% |  |
| Cc1cccc(C)c1NC(=O)c1ccccc1C(=O)O | inactive: 6.77% |  |
| CCOc1ccc(NC(=O)c2cc(C)nc3c2c(C)nn3-c2ccc(C)cc2)cc1 | inactive: 5.48% |  |
| Cc1cccc(C(=O)N2CCc3cc(CNC(=O)CSc4ccccc4)ccc32)c1 | inactive: -22.2% |  |
| COc1ccccc1CNC(=O)c1cc2c(s1)-c1ccc(Cl)cc1SC2 | inactive: 17% |  |
| Cc1ccccc1CNC(=O)CSc1nnc(C)c2c(C)n(-c3ccccc3)nc12 | inactive: -14.9% |  |
| O=C(COc1ccc(Cl)cc1)Nc1nnc(S(=O)(=O)N2CCCCCC2)s1 | inactive: -15.6% |  |
| CCOc1cccc(CC(=O)N2CCc3c([nH]c4ccc(OC)cc34)C2c2ccc(F)cc2)c1OCC (stereo unspecified) | inactive: -20.8% |  |
| CCCCOc1ccc(C2C(C(=O)Nc3ccccc3OC)=C(C)Nc3nnnn32)cc1OC (stereo unspecified) | inactive: -16.1% [at 11.5 µM] |  |
| Cc1ccc(S(=O)(=O)n2nc(C)c(S(=O)(=O)N3CCCCCC3)c2C)cc1C | inactive: -3.63% |  |
| Cc1ccn2c(Nc3ccc4c(c3)OCCO4)c(-c3ccccc3O)nc2c1 | inactive: -7.66% |  |
| CCN(CC)CCCNC(=O)CCC(=O)NNc1nc2ccccc2c2nc(C)nn12 | inactive: -4.06% |  |
| COc1cc2c(cc1OC)[C@@H]1CC(=O)[C@@H](CC(C)C)CN1CC2 | inactive: 7.17% |  |
| Cc1cc(NC(=O)Nc2nnc(N3CCCCCC3)s2)ccc1Br | inactive: 2.3% |  |
| Cc1ccc(CNC(=O)c2ccc(Nc3nc4ccccc4n4nnnc34)cc2)cc1 | inactive: 26.3% |  |
| Cc1ccc(-c2nn(-c3ccccc3)c3c2cnc2ccccc23)cc1C | inactive: -12.6% |  |
